Data published in PMC7940485.
Results are given in words; binding and its absence hold for the method and conditions named. Binding seen in cells or lysates may run through a third protein. Some binding calls cover weakened binding; strength is not graded here. For some of these results: Sequences can lack the tags named with a protein.

Chains of the proteins cited; added tags and fusions are not shown. Lines headed by an entry give the natural chain unless they say otherwise; changes in a name come on top. Residues count along the entry.
UniProt Q5TA45: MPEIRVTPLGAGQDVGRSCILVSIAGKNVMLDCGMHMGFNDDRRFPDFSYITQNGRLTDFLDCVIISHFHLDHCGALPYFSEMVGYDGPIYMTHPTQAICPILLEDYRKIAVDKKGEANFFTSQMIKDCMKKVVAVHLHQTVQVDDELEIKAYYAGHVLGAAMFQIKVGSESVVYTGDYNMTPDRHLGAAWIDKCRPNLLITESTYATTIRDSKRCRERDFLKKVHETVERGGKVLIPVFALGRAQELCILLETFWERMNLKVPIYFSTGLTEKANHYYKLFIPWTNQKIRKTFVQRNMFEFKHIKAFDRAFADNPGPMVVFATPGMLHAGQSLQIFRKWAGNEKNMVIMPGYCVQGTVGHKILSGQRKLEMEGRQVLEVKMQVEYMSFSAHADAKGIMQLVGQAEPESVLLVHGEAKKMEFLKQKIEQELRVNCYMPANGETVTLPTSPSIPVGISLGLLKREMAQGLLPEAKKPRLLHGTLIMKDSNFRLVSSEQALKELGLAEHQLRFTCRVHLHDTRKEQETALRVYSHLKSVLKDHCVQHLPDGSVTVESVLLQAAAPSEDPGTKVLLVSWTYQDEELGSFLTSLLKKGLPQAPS
GFP-INTS11 (1-493): residues 1-493 of Q5TA45
GFP-INTS11 (1-450): residues 1-450 of Q5TA45
GFP-INTS11 (1-390): residues 1-390 of Q5TA45
UniProt Q9NV88: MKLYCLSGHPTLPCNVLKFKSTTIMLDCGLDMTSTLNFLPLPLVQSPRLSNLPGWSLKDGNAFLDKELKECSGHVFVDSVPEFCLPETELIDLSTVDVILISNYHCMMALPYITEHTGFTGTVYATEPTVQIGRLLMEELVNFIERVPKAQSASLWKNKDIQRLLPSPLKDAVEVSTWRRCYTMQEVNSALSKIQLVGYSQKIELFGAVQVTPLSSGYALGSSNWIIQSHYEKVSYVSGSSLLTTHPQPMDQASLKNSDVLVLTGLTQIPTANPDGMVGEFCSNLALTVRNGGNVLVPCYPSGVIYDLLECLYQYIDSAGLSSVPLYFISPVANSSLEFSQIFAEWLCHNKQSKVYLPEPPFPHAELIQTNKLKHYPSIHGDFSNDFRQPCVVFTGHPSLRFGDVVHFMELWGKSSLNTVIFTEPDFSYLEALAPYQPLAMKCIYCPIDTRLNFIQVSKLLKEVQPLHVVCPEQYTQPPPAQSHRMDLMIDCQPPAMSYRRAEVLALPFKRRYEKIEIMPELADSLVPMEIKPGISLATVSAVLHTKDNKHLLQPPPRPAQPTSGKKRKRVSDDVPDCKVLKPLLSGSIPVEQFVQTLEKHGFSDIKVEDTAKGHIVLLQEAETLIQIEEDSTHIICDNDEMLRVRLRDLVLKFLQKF
UniProt Q96HW7: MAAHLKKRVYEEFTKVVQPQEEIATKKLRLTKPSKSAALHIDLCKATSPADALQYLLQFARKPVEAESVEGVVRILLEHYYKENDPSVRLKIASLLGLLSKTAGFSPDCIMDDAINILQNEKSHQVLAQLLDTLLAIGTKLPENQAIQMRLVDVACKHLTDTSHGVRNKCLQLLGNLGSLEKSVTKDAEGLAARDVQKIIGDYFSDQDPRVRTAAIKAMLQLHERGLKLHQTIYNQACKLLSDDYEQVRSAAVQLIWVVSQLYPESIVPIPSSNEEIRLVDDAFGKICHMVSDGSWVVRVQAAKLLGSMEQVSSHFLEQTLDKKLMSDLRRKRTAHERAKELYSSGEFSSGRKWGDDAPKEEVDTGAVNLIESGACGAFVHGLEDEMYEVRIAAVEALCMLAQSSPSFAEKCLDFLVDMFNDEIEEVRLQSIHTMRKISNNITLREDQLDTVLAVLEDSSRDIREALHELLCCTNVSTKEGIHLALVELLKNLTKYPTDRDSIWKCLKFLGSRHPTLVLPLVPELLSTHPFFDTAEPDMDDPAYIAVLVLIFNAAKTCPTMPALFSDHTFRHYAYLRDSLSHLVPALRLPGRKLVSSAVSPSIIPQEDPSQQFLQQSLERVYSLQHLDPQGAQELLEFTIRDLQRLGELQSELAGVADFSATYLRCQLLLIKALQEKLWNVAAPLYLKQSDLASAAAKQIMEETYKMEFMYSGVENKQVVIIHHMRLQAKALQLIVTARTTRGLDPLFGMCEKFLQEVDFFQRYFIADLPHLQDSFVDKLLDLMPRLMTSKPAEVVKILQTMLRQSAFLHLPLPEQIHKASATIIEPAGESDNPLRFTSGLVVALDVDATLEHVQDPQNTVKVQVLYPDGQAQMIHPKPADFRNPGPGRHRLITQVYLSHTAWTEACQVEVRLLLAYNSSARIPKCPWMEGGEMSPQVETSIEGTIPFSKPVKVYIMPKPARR

What was measured:
[1] = target: T1, GFP-WDR73 (transiently transfected in HEK293T) (human) (UniProt Q6P4I2); assay: co-IP; GFP-IP (anti-GFP beads, 2 h, 4 °C) from lysates of HEK293T cells transiently transfected with GFP-tagged constructs; lysis buffer 50 mM Tris-HCl pH 7.4, 150 mM NaCl, 1 mM EDTA, 1% Triton X-100; western blot
T1 sequence: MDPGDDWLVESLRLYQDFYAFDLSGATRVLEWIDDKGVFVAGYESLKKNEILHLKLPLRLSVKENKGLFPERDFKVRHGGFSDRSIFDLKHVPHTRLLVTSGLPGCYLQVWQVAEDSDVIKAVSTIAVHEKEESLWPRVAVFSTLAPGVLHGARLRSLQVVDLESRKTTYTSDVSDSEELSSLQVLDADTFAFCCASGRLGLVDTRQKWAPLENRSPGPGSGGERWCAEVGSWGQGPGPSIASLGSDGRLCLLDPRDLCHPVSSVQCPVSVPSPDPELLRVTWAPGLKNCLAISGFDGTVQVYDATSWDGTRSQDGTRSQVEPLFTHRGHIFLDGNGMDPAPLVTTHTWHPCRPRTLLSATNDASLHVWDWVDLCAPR

[2] = target: T2, GFP-WDR73 full length (stably expressed in podocytes) (human) (UniProt Q6P4I2); assay: co-IP; GFP-IP (anti-GFP beads, 2 h, 4 °C) from lysates of immortalised podocytes stably expressing GFP or GFP-WDR73; lysis buffer 50 mM Tris-HCl pH 7.4, 150 mM NaCl, 1 mM EDTA, 1% Triton X-100; western blot
T2 sequence: T1 sequence

GFP-INTS11 (1-390) = GFP-INTS11 (1-390) (UniProt Q5TA45); assay: co-IP; GFP-IP (anti-GFP beads, 2 h, 4 °C) from lysates of HEK293T cells transiently transfected with GFP-tagged constructs; lysis buffer 50 mM Tris-HCl pH 7.4, 150 mM NaCl, 1 mM EDTA, 1% Triton X-100; western blot
GFP-INTS11 wild type = GFP-INTS11 wild type (UniProt Q5TA45); assay: as above
GFP-INTS11 (1-493) = GFP-INTS11 (1-493) (UniProt Q5TA45); assay: as above
GFP-INTS11 (1-450) = GFP-INTS11 (1-450) (UniProt Q5TA45); assay: as above
GFP-INTS11^p.L509A = GFP-INTS11^p.L509A (UniProt Q5TA45); assay: as above
GFP-INTS9 = GFP-INTS9 (UniProt Q9NV88); assay: as above
[3] = target: Integrator complex subunit 11 (endogenous, podocytes) (human (endogenous in AB8/13 podocytes)) (UniProt Q5TA45); assay: co-IP; IP of endogenous INTS11 or INTS9 with primary antibody overnight, then Protein-A or Protein-G beads; lysates of podocytes stably expressing GFP or GFP-WDR73, or treated with control or WDR73 siRNA; western blot

## INTS4 (from UniProt Q96HW7 1-963)
[1]
  binding: no binding

## Integrator complex subunit 9 (endogenous, podocytes) (from UniProt Q9NV88 1-658)
[2]
  binding: binds

## Integrator complex subunit 11 (endogenous, podocytes) (from UniProt Q5TA45 1-600)
[2]
  binding: binds

B1: WDR73 (endogenous, HEK293T) (protein, UniProt Q6P4I2 1-378)
chain: T1 sequence
GFP-INTS11 (1-390)
  binding: no binding
GFP-INTS11 wild type
  binding: binds
GFP-INTS11 (1-493)
  binding: binds
GFP-INTS11 (1-450)
  binding: binds
GFP-INTS11^p.L509A
  binding: binds
GFP-INTS9
  binding: binds

B2: GFP-WDR73 full length (stably expressed in podocytes) (protein, UniProt Q6P4I2 1-378)
chain: T1 sequence
[3]
  binding: binds
